In publication PMC4336329 (PLoS ONE, 2015):
Among all 310,000 compounds or so, about 14,000 (4.5%) showed an effect of 50% or more. Effects have a minus sign here. The list shows a part of the results.

Biological target: human ether-à-go-go-related gene (hERG) potassium channel (human, UniProt Q12809)
Experiment: primary screen, population patch clamp on CHO cells stably expressing hERG
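Further: peak tail current of the secondary pulse compared with the same well before compound.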

Chain of human ether-à-go-go-related gene (hERG) potassium channel (Q12809 whole entry, looked up): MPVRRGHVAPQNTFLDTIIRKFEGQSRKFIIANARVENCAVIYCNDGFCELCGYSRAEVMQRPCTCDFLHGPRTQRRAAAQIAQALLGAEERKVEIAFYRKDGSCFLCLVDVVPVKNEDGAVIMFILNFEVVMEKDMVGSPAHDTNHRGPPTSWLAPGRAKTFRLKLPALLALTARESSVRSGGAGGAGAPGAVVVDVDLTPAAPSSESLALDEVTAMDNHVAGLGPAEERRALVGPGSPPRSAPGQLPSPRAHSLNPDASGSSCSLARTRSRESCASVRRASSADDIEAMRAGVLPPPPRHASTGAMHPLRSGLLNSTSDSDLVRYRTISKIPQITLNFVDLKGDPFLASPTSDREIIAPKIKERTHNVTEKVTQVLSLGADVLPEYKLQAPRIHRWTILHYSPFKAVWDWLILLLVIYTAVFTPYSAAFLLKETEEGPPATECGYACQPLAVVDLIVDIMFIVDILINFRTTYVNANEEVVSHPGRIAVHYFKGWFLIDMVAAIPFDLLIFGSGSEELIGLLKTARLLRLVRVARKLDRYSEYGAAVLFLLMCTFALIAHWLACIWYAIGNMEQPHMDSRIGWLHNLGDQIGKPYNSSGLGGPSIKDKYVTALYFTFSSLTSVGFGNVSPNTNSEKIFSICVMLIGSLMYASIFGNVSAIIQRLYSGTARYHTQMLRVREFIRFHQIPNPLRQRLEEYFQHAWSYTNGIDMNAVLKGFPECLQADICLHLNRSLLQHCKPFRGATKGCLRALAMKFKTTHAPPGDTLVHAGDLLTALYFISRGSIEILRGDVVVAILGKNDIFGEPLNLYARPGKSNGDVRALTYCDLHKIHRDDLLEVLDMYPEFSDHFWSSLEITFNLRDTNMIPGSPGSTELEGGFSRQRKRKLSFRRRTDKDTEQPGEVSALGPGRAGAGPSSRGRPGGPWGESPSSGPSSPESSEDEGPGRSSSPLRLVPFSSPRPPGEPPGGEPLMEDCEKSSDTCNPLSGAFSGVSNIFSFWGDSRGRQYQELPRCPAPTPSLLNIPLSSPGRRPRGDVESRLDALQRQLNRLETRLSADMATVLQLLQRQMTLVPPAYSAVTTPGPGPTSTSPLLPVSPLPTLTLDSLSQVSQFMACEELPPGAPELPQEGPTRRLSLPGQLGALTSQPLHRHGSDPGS

Question: How did the “hERG current change (%, negative = inhibition) at 10uM” value turn out when CCCNC(=O)Cn1cccc1C(=O)c1ccccc1 was run?
Answer: The value was 14.7%.

Question: Which “hERG current change (%, negative = inhibition) at 10uM” value does the source give for O=C(Nc1cccc2ccccc12)c1ccc([N+](=O)[O-])o1 here?
Answer: The value was -3.17%.

Question: With O=C(NC1=NCCS1)c1ccc(Cl)s1 as the molecule, how does the “hERG current change (%, negative = inhibition) at 10uM” value read?
Answer: Its value is 13.7%.

Question: With COc1cccc(C(=O)C2CCCN(Cc3cnn(C(C)C)c3)C2)c1 (stereo not shown) as the molecule, how does the “hERG current change (%, negative = inhibition) at 10uM” value read?
Answer: The value was -43.6%.

Question: With COCC(=O)N(Cc1nc2ccccc2c(=O)[nH]1)Cc1cccs1 as the molecule, how does the “hERG current change (%, negative = inhibition) at 10uM” value read?
Answer: Its value is 11.4%.

Question: For CCOc1ccccc1N1CCN(C(=S)Nc2ccc(S(N)(=O)=O)cc2)CC1, which “hERG current change (%, negative = inhibition) at 10uM” value is on record?
Answer: Its value is 0.536%.

Question: COc1ccc(S(=O)(=O)N2CCOCC2)cc1NC(=O)CSc1nnnn1C1CC1 was tested. Which “hERG current change (%, negative = inhibition) at 10uM” value did it give?
Answer: The value was -15.7%.

Question: Which “hERG current change (%, negative = inhibition) at 10uM” value does the source give for Cc1ccc(NS(=O)(=O)c2ccc(NC(=O)CSc3ccc(Cl)cc3)cc2)c(C)c1 here?
Answer: The value was 9.71%.

Question: With NC(=S)N/N=C/c1cn(CCC(=O)O)nc1-c1cccc(Br)c1 as the molecule, how does the “hERG current change (%, negative = inhibition) at 10uM” value read?
Answer: The value was 17%.

Question: For CCOC(=O)CN1C(=O)SC(Nc2ccc(C)cc2)C1=O (stereo not shown), which “hERG current change (%, negative = inhibition) at 10uM” value is on record?
Answer: The value was 27.1%.

Question: For Cc1oc(-c2ccccc2F)nc1CS(=O)CC(=O)NC1CC1 (stereo not shown), which “hERG current change (%, negative = inhibition) at 10uM” value is on record?
Answer: The value was 9.38%.

Question: For O=[N+]([O-])CC(c1ccccc1)P(=O)(c1ccccc1)c1ccccc1 (stereo not shown), which “hERG current change (%, negative = inhibition) at 10uM” value is on record?
Answer: Its value is 25.5%.

Question: How did the “hERG current change (%, negative = inhibition) at 10uM” value turn out when CC(C)CCNC(=O)NC(=O)COc1ncnc2sccc12 was run?
Answer: Its value is -17.4%.

Question: How did the “hERG current change (%, negative = inhibition) at 10uM” value turn out when CCOc1ccc(S(=O)(=O)NCc2ccc(F)cc2)c2cccnc12 was run?
Answer: Its value is -15.1%.

Question: For COC(=O)c1cccc(Cn2c(Cl)c(/C=N/Nc3ccccc3C)sc2=O)c1, which “hERG current change (%, negative = inhibition) at 10uM” value is on record?
Answer: Its value is 3.98%.

Question: For Cc1ccc(OCc2cc(C(=O)NCC(C)c3ccccc3)no2)cc1C (stereo not shown), which “hERG current change (%, negative = inhibition) at 10uM” value is on record?
Answer: Its value is 2.96%.

Question: O=c1oc(-c2cccnc2)nc2ccccc12 was tested. Which “hERG current change (%, negative = inhibition) at 10uM” value did it give?
Answer: The value was 5.21%.

Question: O=C(Nc1ccc(Cl)cc1)Nc1ccccc1C(=O)O was tested. Which “hERG current change (%, negative = inhibition) at 10uM” value did it give?
Answer: The value was 14.1%.

Question: With Cc1oc(-c2ccc(Cl)cc2)nc1CN1CCC(C(=O)N2CCN(Cc3ccccc3)CC2)CC1 as the molecule, how does the “hERG current change (%, negative = inhibition) at 10uM” value read?
Answer: Its value is -69.1%.

Question: How did the “hERG current change (%, negative = inhibition) at 10uM” value turn out when CC1CC(C)CN(C(=O)C(Cc2ccccc2)n2cccc2)C1 (stereo not shown) was run?
Answer: The value was -1.62%.

Question: How did the “hERG current change (%, negative = inhibition) at 10uM” value turn out when Cc1ccc(C(=O)COC(=O)C(C)N2C(=O)C3C4CCC(C4)C3C2=O)cc1 (stereo not shown) was run?
Answer: The value was 0.779%.

Question: Which “hERG current change (%, negative = inhibition) at 10uM” value does the source give for Cc1cccc(NC(=O)CN2C(=O)N/C(=C\c3ccc(-c4cccc(C(=O)O)c4)o3)C2=O)c1 here?
Answer: The value was 19.3%.

Question: COc1ccc(C(=O)Nc2ccc(S(=O)(=O)Nc3nccc(C)n3)cc2)cc1OC was tested. Which “hERG current change (%, negative = inhibition) at 10uM” value did it give?
Answer: Its value is 9.61%.

Question: With Cc1cc(/C=N/N2CCN(C)CC2)c(C)n1-c1ccc(Cl)cc1 as the molecule, how does the “hERG current change (%, negative = inhibition) at 10uM” value read?
Answer: Its value is -13.5%.

Question: How did the “hERG current change (%, negative = inhibition) at 10uM” value turn out when CC(C)=CCN1CCN(Cc2cccn2-c2ccccn2)CC1CCO (stereo not shown) was run?
Answer: The value was -55.4%.

Question: How did the “hERG current change (%, negative = inhibition) at 10uM” value turn out when COc1ccc(/C(N)=N/O)cc1O was run?
Answer: The value was 5.51%.

Question: With Cl.Oc1ccc(Cl)cc1CNCc1ccc(C(F)(F)F)cc1 as the molecule, how does the “hERG current change (%, negative = inhibition) at 10uM” value read?
Answer: The value was -28%.

Question: For O=C(/C=C/c1ccncc1)c1ccc2c(c1)OCCO2, which “hERG current change (%, negative = inhibition) at 10uM” value is on record?
Answer: The value was 0.109%.

Question: How did the “hERG current change (%, negative = inhibition) at 10uM” value turn out when CCOC(=O)CSC1=NC(=O)/C(=C\c2ccc(OC(C)=O)cc2)S1 was run?
Answer: Its value is 13.1%.

Question: Which “hERG current change (%, negative = inhibition) at 10uM” value does the source give for COc1ccc(CN2CCNC(=O)C2CC(=O)N(C)Cc2ccon2)c(F)c1 (stereo not shown) here?
Answer: The value was 9.55%.

Question: For CC(=O)Nc1cccc(N(C)S(C)(=O)=O)c1, which “hERG current change (%, negative = inhibition) at 10uM” value is on record?
Answer: The value was 6.54%.

Question: With Cc1ccc(C(=O)N/C(=C\c2ccc(-c3ccc([N+](=O)[O-])cc3)o2)C(=O)NC2CCS(=O)(=O)C2)cc1 (stereo not shown) as the molecule, how does the “hERG current change (%, negative = inhibition) at 10uM” value read?
Answer: The value was -28.2%.

Question: With C=C(C)c1cccc(C(C)(C)NC(=O)NCCCn2ccnc2)c1 as the molecule, how does the “hERG current change (%, negative = inhibition) at 10uM” value read?
Answer: Its value is -2.4%.

Question: Which “hERG current change (%, negative = inhibition) at 10uM” value does the source give for CN1CCN(c2nc(-c3ccccc3)nc3c2oc2ccccc23)CC1 here?
Answer: The value was -1.13%.

Question: With c1ccc(C2CC3CC4(CCCC4)N2O3)cc1 (stereo not shown) as the molecule, how does the “hERG current change (%, negative = inhibition) at 10uM” value read?
Answer: Its value is -4.68%.

Question: CC1(c2ccccc2)CC(C)(C)N(C(=O)C2CCCO2)c2ccccc21 (stereo not shown) was tested. Which “hERG current change (%, negative = inhibition) at 10uM” value did it give?
Answer: The value was -17.7%.

Question: How did the “hERG current change (%, negative = inhibition) at 10uM” value turn out when C=CCn1c(SC(C)C(=O)NC2CC2)nnc1-c1ccoc1C (stereo not shown) was run?
Answer: The value was -4.83%.

Question: How did the “hERG current change (%, negative = inhibition) at 10uM” value turn out when Cc1nnc(SCC(=O)Nc2cccc(N)c2)n1-c1ccccc1 was run?
Answer: The value was -10.1%.

Question: With CNC(=O)/C(C#N)=C\c1cc(C)n(-c2ccc(N3CCOCC3)cc2)c1C as the molecule, how does the “hERG current change (%, negative = inhibition) at 10uM” value read?
Answer: Its value is 9.21%.

Question: With CN1CCN(c2ccc(CNS(=O)(=O)c3ccsc3)cc2)CC1 as the molecule, how does the “hERG current change (%, negative = inhibition) at 10uM” value read?
Answer: The value was -19.4%.

Question: Which “hERG current change (%, negative = inhibition) at 10uM” value does the source give for Cn1cc([N+](=O)[O-])c(C(=O)NCC(=O)O)n1 here?
Answer: Its value is 24.8%.

Question: How did the “hERG current change (%, negative = inhibition) at 10uM” value turn out when CNC(=O)CSc1nnnn1-c1ccc(C)cc1C was run?
Answer: The value was 7.63%.

Question: With Cc1c(Br)c([N+](=O)[O-])nn1CC(=O)N1CCCc2ccccc21 as the molecule, how does the “hERG current change (%, negative = inhibition) at 10uM” value read?
Answer: Its value is 2.48%.

Question: Which “hERG current change (%, negative = inhibition) at 10uM” value does the source give for Cc1cc2c(NC(=O)CCCC(=O)O)cccc2nn1 here?
Answer: The value was 13.6%.

Question: For CC1=CCC(C(=O)O)C(C(=O)O)C1 (stereo not shown), which “hERG current change (%, negative = inhibition) at 10uM” value is on record?
Answer: Its value is 0.736%.

Question: Cl.O=C(N/N=C1/CN2CCC1CC2)c1cccc(O)c1 was tested. Which “hERG current change (%, negative = inhibition) at 10uM” value did it give?
Answer: Its value is 10.9%.

Question: Which “hERG current change (%, negative = inhibition) at 10uM” value does the source give for Cc1ccsc1C(=O)OCC(=O)NCc1ccco1 here?
Answer: Its value is 0.492%.

Question: How did the “hERG current change (%, negative = inhibition) at 10uM” value turn out when COc1cc(C(=O)OCC(=O)NCc2ccc(F)cc2)ccc1OCC(C)C was run?
Answer: Its value is 21.1%.

Question: How did the “hERG current change (%, negative = inhibition) at 10uM” value turn out when COc1ccc(N2C(=O)CC(N(CCc3ccccc3)C(=O)/C=C/C(=O)O)C2=O)cc1 (stereo not shown) was run?
Answer: The value was 8.06%.

Question: Which “hERG current change (%, negative = inhibition) at 10uM” value does the source give for CCOC(=O)C1C(=O)N(O)CC1c1cccc(Oc2ccccc2)c1 (stereo not shown) here?
Answer: The value was 22.6%.

Question: With CCn1c(C(=O)NCCCN2CCc3ccccc3C2)cc2sccc21 as the molecule, how does the “hERG current change (%, negative = inhibition) at 10uM” value read?
Answer: The value was -64%.

Question: COc1ccc(NC(=O)C2CCCN(C)C2)cc1OCC(C)C (stereo not shown) was tested. Which “hERG current change (%, negative = inhibition) at 10uM” value did it give?
Answer: Its value is -1.9%.

Question: How did the “hERG current change (%, negative = inhibition) at 10uM” value turn out when Cc1ccc2c(c1)-c1c(cnn1CC(=O)N(CCC#N)c1ccccc1)CO2 was run?
Answer: Its value is -47.9%.

Question: How did the “hERG current change (%, negative = inhibition) at 10uM” value turn out when CC(C)c1c(C(=O)N/N=C/C2CC=CCC2)nnn1-c1nonc1N (stereo not shown) was run?
Answer: Its value is 4.85%.

Question: Which “hERG current change (%, negative = inhibition) at 10uM” value does the source give for Cc1cccc(NC(=O)CNC(=O)C(NC(=O)Cc2ccccc2)C(C)C)c1C (stereo not shown) here?
Answer: Its value is -12.4%.

Question: Which “hERG current change (%, negative = inhibition) at 10uM” value does the source give for Fc1cccc(CN2CCN(C(=S)NCCc3ccccc3)CC2)c1 here?
Answer: The value was 9.69%.

Question: With Cn1c(N)c(C(=O)COC(=O)c2cc(C3CC3)nc3ccccc23)c(=O)n(C)c1=O as the molecule, how does the “hERG current change (%, negative = inhibition) at 10uM” value read?
Answer: The value was -30.6%.

Question: With COCCN(Cc1cc2cc(C)c(C)cc2nc1Cl)C(=O)Nc1ccccc1 as the molecule, how does the “hERG current change (%, negative = inhibition) at 10uM” value read?
Answer: Its value is 1.39%.
